Reference: publication PMC4625158, “Structural evidence for the role of polar core residue Arg175 in arrestin activation” (Scientific Reports, 2015)

Target: the molecule itself
Experiment: SAXS; small angle X-ray scattering in solution, 10 °C, 10 mM HEPES, 150 mM NaCl, pH 7.5; concentration series (arr-1: 1.9, 3.0 and 8.5 mg/mL; R175E: 0.4, 0.9 and 1.7 mg/mL; p44: 1.0, 2.0 and 4.6 mg/mL), data extrapolated to infinite dilution

B1: visual arrestin-1 (bovine, full length, […]) (natural protein)
chain: not shown
notes: visual arrestin-1 (arr-1), bovine, full length […]; The calculated mass of the dimer is 94.2 kDa (47.1 kDa per chain, as for R175E), so it probably carries the same unnamed tags as m1; also called arr-1; wild type arr-1; source: Saccharomyces cerevisiae F11 alpha strain, purified
stoichiometry N: 2
